What all share (experiment): two-hybrid; bacterial two-hybrid in E. coli MM337 (pUT18C, pKT25, pUT18); MacConkey base and M9 plates with 0.5% maltose, two days at 30°C
Test [1] addresses T1, truncated version of YfiN missing its transmembrane region (residues 1-182) (Pseudomonas aeruginosa PA01) (UniProt Q9I4L5).
T1 sequence: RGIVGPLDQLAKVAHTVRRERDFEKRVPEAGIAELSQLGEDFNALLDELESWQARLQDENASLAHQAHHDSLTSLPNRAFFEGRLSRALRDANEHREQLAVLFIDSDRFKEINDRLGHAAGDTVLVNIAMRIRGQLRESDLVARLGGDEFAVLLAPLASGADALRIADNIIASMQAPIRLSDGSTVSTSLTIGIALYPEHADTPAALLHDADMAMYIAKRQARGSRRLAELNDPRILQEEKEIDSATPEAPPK

The target of test [2] is T2, truncated version of YfiN missing its transmembrane region (residues 1-182) (Pseudomonas aeruginosa PA01), Q9I4L5.
T2 chain: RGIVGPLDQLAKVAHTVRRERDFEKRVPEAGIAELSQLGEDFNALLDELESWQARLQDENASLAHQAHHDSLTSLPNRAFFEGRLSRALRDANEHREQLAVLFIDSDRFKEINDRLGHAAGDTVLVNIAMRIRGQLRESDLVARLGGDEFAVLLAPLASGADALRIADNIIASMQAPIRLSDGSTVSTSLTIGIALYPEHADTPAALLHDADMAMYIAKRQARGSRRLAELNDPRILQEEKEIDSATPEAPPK
Conditions: remark: other sources report otherwise.

Test [3] concerns the target truncated variant of YfiR missing the predicted signal peptide (residues 1-34) (Pseudomonas aeruginosa PA01) (UniProt Q9I4L4).
Test [4] has as its target isolated periplasmic domain of YfiN (Pseudomonas aeruginosa PA01) (UniProt Q9I4L5).

These are yes or no findings as the source states them, for the method shown. Some results given as binding are weak or reduced against the parent protein; the word gives no strength. For some assays here: Sequences can lack the tags named with a protein.

Consider “isolated HAMP domain of YfiN (from UniProt Q9I4L5 183-236) (domain or fragment)”, for which, in test [1], the binding result is recorded as “binds”.

As to “isolated GGDEF domain of YfiN (from UniProt Q9I4L5 279-415) (domain or fragment)”, in test [1], the binding entry is on record as “no binding”.

B1: truncated version of YfiN missing its transmembrane region (residues 1-182), Q9I4L5 183-435 (domain or fragment)
chain: RGIVGPLDQLAKVAHTVRRERDFEKRVPEAGIAELSQLGEDFNALLDELESWQARLQDENASLAHQAHHDSLTSLPNRAFFEGRLSRALRDANEHREQLAVLFIDSDRFKEINDRLGHAAGDTVLVNIAMRIRGQLRESDLVARLGGDEFAVLLAPLASGADALRIADNIIASMQAPIRLSDGSTVSTSLTIGIALYPEHADTPAALLHDADMAMYIAKRQARGSRRLAELNDPRILQEEKEIDSATPEAPPK
With B1, the binding entry in test [2] is on record as “binds”.

B2: truncated variant of YfiR missing the predicted signal peptide (residues 1-34) (domain or fragment, UniProt Q9I4L4 35-190)
chain: DDARTSIEQRSNAVSQVLLGIFSYVRWPKEPAVLQLCVVGPTEYADGLLRGMVQANGRRVHAERRAVDNPDLGTLCNVIYLGVVDERERQQVFRSLAGHPVLSISERGTECSVGSMFCLNVGGPRITFEANLDSIARSGVRVHPSVLKLARRQATP
As to B2, the binding entry in test [3] is “binds”.

B3: YfiR (bacterial two-hybrid fusion, variant not stated) (protein, UniProt Q9I4L4 1-190)
chain: MPSLPTLQPLDLYRRTLACLVLAVSCLGGGGLWADDARTSIEQRSNAVSQVLLGIFSYVRWPKEPAVLQLCVVGPTEYADGLLRGMVQANGRRVHAERRAVDNPDLGTLCNVIYLGVVDERERQQVFRSLAGHPVLSISERGTECSVGSMFCLNVGGPRITFEANLDSIARSGVRVHPSVLKLARRQATP
B3: the binding result in test [4] is reported as “no binding”.

Values taken from publication PMC2837407.
